# Measured values published in patent US7105647 (WISCONSIN ALUMNI RESEARCH FOUNDATION, dated 2006).
# T1: human aryl hydrocarbon receptor (AHR), full length (human, UniProt P35869 1-848)
# T1 construct: Full length in yeast (PRSAHR) and in the Hsp90 co-IP (huAHR); also called huAHR; Ah receptor
# T1 sequence (looked up): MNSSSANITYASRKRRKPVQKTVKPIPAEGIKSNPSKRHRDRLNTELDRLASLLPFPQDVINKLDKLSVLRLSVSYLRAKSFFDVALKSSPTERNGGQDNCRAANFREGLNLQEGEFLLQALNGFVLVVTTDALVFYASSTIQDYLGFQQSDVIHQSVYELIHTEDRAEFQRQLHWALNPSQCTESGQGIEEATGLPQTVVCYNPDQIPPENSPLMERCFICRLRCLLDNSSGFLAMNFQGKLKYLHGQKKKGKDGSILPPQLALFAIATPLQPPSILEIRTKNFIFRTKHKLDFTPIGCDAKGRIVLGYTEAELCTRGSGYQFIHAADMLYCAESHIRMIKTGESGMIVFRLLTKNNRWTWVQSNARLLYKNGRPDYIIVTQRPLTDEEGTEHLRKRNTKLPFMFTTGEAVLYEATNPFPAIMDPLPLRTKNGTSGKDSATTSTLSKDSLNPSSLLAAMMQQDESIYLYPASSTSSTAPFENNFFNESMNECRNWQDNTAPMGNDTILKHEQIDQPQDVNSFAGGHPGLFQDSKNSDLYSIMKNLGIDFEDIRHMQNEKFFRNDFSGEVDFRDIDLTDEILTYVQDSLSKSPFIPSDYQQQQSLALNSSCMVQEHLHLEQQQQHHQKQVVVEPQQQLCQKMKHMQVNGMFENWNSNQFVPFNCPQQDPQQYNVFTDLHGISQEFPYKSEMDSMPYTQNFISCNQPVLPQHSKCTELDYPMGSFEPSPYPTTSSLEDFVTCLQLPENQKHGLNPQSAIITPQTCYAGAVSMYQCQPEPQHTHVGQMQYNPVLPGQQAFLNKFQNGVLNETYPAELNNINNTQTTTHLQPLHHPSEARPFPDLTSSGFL
# Experiments:
# [1] = biological target: T2, AH receptor nuclear translocator (ARNT), full length (human, UniProt P27540 1-789); experiment: yeast two-hybrid, Galacto-Light lacZ assay
# T2 construct: Full length: in vitro translated, expressed in yeast (PL574) or transfected; Endogenous ARNT in the Hep3B experiment; also called huARNT; hARNT
# T2 sequence (P27540 whole entry): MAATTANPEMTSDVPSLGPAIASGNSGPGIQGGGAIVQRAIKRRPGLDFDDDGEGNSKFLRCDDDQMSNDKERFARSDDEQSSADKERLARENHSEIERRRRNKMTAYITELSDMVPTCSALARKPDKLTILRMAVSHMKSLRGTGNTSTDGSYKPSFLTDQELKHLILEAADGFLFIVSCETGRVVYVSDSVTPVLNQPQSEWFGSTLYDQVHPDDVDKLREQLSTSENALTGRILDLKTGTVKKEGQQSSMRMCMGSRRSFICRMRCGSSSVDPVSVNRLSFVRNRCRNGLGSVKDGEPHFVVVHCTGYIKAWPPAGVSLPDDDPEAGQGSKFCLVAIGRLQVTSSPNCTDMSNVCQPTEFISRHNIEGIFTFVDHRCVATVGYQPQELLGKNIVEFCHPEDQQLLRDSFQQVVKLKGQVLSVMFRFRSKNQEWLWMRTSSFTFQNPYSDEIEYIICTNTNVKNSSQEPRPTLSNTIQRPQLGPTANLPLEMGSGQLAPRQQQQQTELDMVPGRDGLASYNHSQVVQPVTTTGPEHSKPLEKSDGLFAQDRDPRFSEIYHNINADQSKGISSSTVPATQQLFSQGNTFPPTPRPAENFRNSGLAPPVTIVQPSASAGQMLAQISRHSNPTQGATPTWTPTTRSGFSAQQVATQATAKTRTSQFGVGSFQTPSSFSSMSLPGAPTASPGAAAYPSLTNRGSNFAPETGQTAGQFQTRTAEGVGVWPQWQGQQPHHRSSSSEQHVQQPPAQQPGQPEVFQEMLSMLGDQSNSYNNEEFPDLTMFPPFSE
# Text: (§1) This plasmid was designated PL371, and subsequently was digested with NotI and XhoI, this fragment cloned into the corresponding sites of pSGBCU11. This clone was designated PL574. The LexAMOP fusion protein constructs were cotransformed with a yeast expression vector containing the full length AHR or ARNT into L40, a yeast strain containing integrated lacZ and HIS3 reporter genes. As controls, LexAAHR and LexAARNT were cotransformed with AHR and ARNT. The strength of interaction was visually characterized by X-Gal (5-bromo-4-chloro-3-indolyl-(-D-galactoside) plate assays, performed after three days growth on selective media (Bohen et al, Proc. Natl. Acad. Sci. USA 90: 11424–11428, 1993). To provide quantitation of the interaction strength, multiple colonies from yeast harboring each bHLH-PAS combination colonies were grown overnight in liquid media. Liquid cultures were grown for 5 hours, and assayed for lacZ activity using the Galacto-Light chemiluminescence reporter system (Tropix, Bedford, Mass.). To determine the effect of AHR agonists on these interactions, yeast were also grown on plates or in liquid culture with and without 1 μM βNF (Carver et al., J. Biol. Chem. 269: 30109–30112, 1994).
# (§2) 2. Interaction of MOPs with the AHR and ARNT in vivo; Yeast two-hybrid experiments. […]
# [2] = biological target: T1, human aryl hydrocarbon receptor (AHR), …; experiment: yeast two-hybrid, lacZ reporter, with and without 1 µM βNF
# Text: as §1, §2
binder,measurement,setting,value
"LexAMOP2 (other, range 1-202; Yeast two-hybrid bait; also called LexAbHLH-PAS fusion of HIF2α; PL857) MKALTARQQEVFDLIRDHISQTGMPPTRAEIAQRLGFRSPNAAEEHLKALARKGVIEIVSGASRGIRLLQEEEEGLPLVGRVAAGEPLLAQQHIEGHYQVDPSLFKPNADFLLRVSGMSMKDIGIMDGDLLAVHKTQDVRNGQVVVARIDDEVTVKRLKKQGNKVELLPENSEFKPIVVDLRQQSFTIEGLAVGVIRNGDWLMTADKEKKRSSSERRKEKSRDAARCRRSKETEVFYELAHELPLPHSVSSHLDKASIMRLAISFLRTHKLLSSVCSENESEAEADQQMDNLYLKALEGFIAVVTQDGDMIFLSENISKFMGLTQVELTGHSIFDFTHPCDHEEIRENLSLKNGSGFGKKSKDMSTERDFFMRMKCTVTNRGRTVNLKSATWKVLHCTGQVKVYNNCPPHNSLCGYKEPLLSCLIIMCEPIQHPSHMDIPLDSKTFLSRHSMDMKFTYCDDRITELIGYHPEELLGRSAYEFYHALDSENMTKSHQNLCTKGQVVSGQYRMLAKHGGYVWLETQGTVIYNPRNLQPQCIMCVNYVLSEIEKNDVVFSMDQTE",fold above background (lacZ reporter activity),[1],28 fold
same,binding result,[2],no binding
